The source of these data is paper PMC12136788.

Sequences and labels used below:
T1: UNK ZnF1-3 (human, UniProt Q9C0B0 31-174)
T1 sequence: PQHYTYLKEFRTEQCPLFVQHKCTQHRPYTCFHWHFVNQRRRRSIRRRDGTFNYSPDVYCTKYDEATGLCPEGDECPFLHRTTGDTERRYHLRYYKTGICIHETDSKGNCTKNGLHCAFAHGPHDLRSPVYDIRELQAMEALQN

B1: 49353820_49354314_1221_CDS_ENSMUSG00000039542_ENSMUST00000166811|mouse|control|control (ssRNA)
RNA: GGGAGUUCUACAGUCCGACGAUCACAGGUGAUGUUCACCUGGUUCCCUUCCCAAGUGUACACAGCCACAGGGCCCUGGAGCUUGGGAGCAUAUUGAACUUCGAGGUACAUGGACUGGGAAUCCUGGCCGAUGGUGUUGCUGGCCAACAGAGGAUUGAGCAUCA
B2: chr1:29069144:29069145:+_ENSG00000198492_ENST00000541996|perfect_dup|FALSE|FALSE (ssRNA)
RNA: GGGAGUUCUACAGUCCGACGAUCGAGAAGUCAAUCCCACUGGGAAAAAAAUUAAAACCAUGCUGACCAAGAAAUGGAGUGCUACCUAGGGCUCCUGGUUGCCCAAACAUUGCAUCUGGUAGAAAGUGGGGCUCUCCGUUGCUCCAACAGAGGAUUGAGCAUCA
B3: chr4:110384322:110384323:+_ENSG00000138802_ENST00000265175|hu_hu|FALSE|FALSE (ssRNA)
RNA: GGGAGUUCUACAGUCCGACGAUCGUAUGGUUGGGAGGCACUCGUAUGCAAAUGGGAUGCUGACGAUGCAGCACCUUGGAAAGAUCCUAGAGUGGAUCCCACAAUAUGAGGGGCAGGAGGACCCCUGCUGUACAACUGCUGUGCCAACAGAGGAUUGAGCAUCA
B4: 46246592_46254616_4918_CDS_ENSG00000189079_ENST00000334344|human|control|control (ssRNA)
RNA: GGGAGUUCUACAGUCCGACGAUCUUGUACAGCUGGUGAAGGUGGCAUAGGAGUGUUCUGCGGGACCACAUUCUGUACAUAUGUUGGUGGAUGCUGUUGCUUUUGCUGAACAGCACUUUCUAUUGCUACUUUAGCUACAGUGCUCAACAGAGGAUUGAGCAUCA
B5: chr10:80924034:80924035:-_ENSMUSG00000034818_ENSMUST00000118763|mus_hu|FALSE|FALSE (ssRNA)
RNA: GGGAGUUCUACAGUCCGACGAUCAAGUGAAGGGAUCGCAGAGAGCAGCUUUGGAUUUUGCUUCUGGUUGGCAGUUCCUGAAGGUGCGUUCUGUGCAGGUAAAUACUCCCAAAUCUGUGUGUGCUGACCCGGGAGAAGGUGAAACAACAGAGGAUUGAGCAUCA
B6: chr18:56902939:56902940:+_ENSMUSG00000024590_ENSMUST00000025486|mus_mus|FALSE|FALSE (ssRNA)
RNA: GGGAGUUCUACAGUCCGACGAUCUGUGACGCCAGCAUUUGCAGCCCACACUGUGACAGUCUGGCCAGCCUUCAGCACAUAUCUUGAGGUAUAUUUGUAACUGACUGAUGUGUCUCCAAUUUUUCUGAUCAUCUCCCAGCCUCCCAACAGAGGAUUGAGCAUCA
B7: chr22:32879901:32879902:+_ENSG00000100225_ENST00000397426|hu_mus|hu_hu_hu_mus_False|8_8 (ssRNA)
RNA: GGGAGUUCUACAGUCCGACGAUCCUCUUCCAUACUCAUGGCAUCCUGAAUUGACUCAGCUUCAACAUUUUGACUAGGCCCUUCCAUACUGUCAUCAGUCCAGGCAUCAAAUGGGGUGGCCUGUCCUUGGAAUGAAUCAGUCCCCAACAGAGGAUUGAGCAUCA
B8: chr5:145543945:145543946:-_ENSG00000133706_ENST00000545646|hu_hu|hu_hu_hu_mus_True|38_48 (ssRNA)
RNA: GGGAGUUCUACAGUCCGACGAUCCUGAACGGCCAGUGGUGGGAAAUAAUCAAGCCAGUGCUCUGCUUCAGAAAACUUCACUAUGUCUUCAUCAGACAGGCCAAGGGAUUUCAUAAUGUCCCACUGGUACUUAGAAGAUCCUGCCAACAGAGGAUUGAGCAUCA
B9: chr16:94664741:94664742:+_ENSMUSG00000040785_ENSMUST00000117648|mus_hu|mus_mus_mus_hu_False|58_88 (ssRNA)
RNA: GGGAGUUCUACAGUCCGACGAUCUGGUACUGAUCUUGGUAGCUGAUACUCAGAAGAAAGGCUGGCCAAGGGUGUAUAAAUGCUAGUGUACUGGGGCAAACCUGGUAACACGUUUAUGUAUGCUGGCGGUGUCUGGGUGAUAUCCAACAGAGGAUUGAGCAUCA
B10: chr16:94914985:94914986:+_ENSMUSG00000022897_ENSMUST00000023614|mus_mus|FALSE|FALSE (ssRNA)
RNA: GGGAGUUCUACAGUCCGACGAUCAUUGUGAGGCAAAAAAGCAGUCACAUAAAAUUCUGCAUUUUAAAAUGUUCAGGGUGAACAGAAGACGUCUUUGUGCAGAAGAAAUGGUGGAGACACCACGUGCCGAGAAAAAGCCAAAGACAACAGAGGAUUGAGCAUCA
B11: chr8:95500983:95500984:-_ENSG00000164944_ENST00000437199|hu_hu|hu_hu_hu_mus_True|48_58 (ssRNA)
RNA: GGGAGUUCUACAGUCCGACGAUCAGAACACAUCUAUCGAGUAAAGGACCGUACAUGACGGCCUCUACCACUGCCUCCCACUAACAAACUUUCCUCUGAGCCUCCACUGCCGCUAUUUGUACUAGCCCAGGACGGUCCCAGGCCCAACAGAGGAUUGAGCAUCA
B12: chr4:76721835:76721836:+_ENSG00000138768_ENST00000264904|hu_mus|hu_hu_hu_mus_True|38_38 (ssRNA)
RNA: GGGAGUUCUACAGUCCGACGAUCGUUUGGCUGGGGUUUCUGAGACGCUCUGGAAUAUAACUCAUGUUUGCUAAUAAAUCCUAGUUUCUCUAUGAAAUCUCUUUGCCCAAUCCUCUUCUCUAUUAGUUGCUUUAGUUUCUCUUUCAACAGAGGAUUGAGCAUCA
B13: 53611299_53612085_5349_CDS_ENSG00000086758_ENST00000262854|human|control|control (ssRNA)
RNA: GGGAGUUCUACAGUCCGACGAUCAUUAACCUGCACCAUUGUAGUGAAUUGGACCGUGUAUCUUCUUCGGCCUGCAGUGAAUCGCACGCUUGUCUCUCCAGAUUUCCAGGCAGAAUCAAUAGUGCUAUUGUUGCUUGCACUGUACAACAGAGGAUUGAGCAUCA
B14: chr11:87033893:87033894:+_ENSMUSG00000018548_ENSMUST00000041282|mus_mus|FALSE|FALSE (ssRNA)
RNA: GGGAGUUCUACAGUCCGACGAUCCGUCUACAAAGAGAAUUCUAGGCCAGCCAGGGCUACAUAGUGAGACCCUGCCACAAAAAGAAAGAACGGGAAGGAAAAAGAAGGCAAGCCAGGGUUAGAGAGGUGGUGGCUGGGUUCUCACAACAGAGGAUUGAGCAUCA
B15: chr11:87793471:87793472:-_ENSMUSG00000020483_ENSMUST00000020775|mus_mus|mus_mus_mus_hu_False|28_28 (ssRNA)
RNA: GGGAGUUCUACAGUCCGACGAUCUGGACUUGAAAAUAAAAGAAUAAGCUGGAUCCCCCACCCCCCCACAUUGUCAACCCUACACGAGAGUUUUGAAGGCGACUCAUGAAUCAGCAGAGCUCAAACGGCAAUGACCACCCCACCCAACAGAGGAUUGAGCAUCA
B16: chr5:151042278:151042279:-_ENSG00000113140_ENST00000231061|hu_hu|motif|central (ssRNA)
RNA: GGGAGUUCUACAGUCCGACGAUCAUGACAAUCAUCCAAAUGUGAGGAAAGAACAACCGAUUCACCAACUCCACUUUUUCGGUUUUACAACUUUCUACAUCUCACUCUUGAUUUUGGCCUUCCUGGCUGAAACAGCCUGGCAGUCAACAGAGGAUUGAGCAUCA
B17: chr3:10015032:10015033:+_ENSMUSG00000027533_ENSMUST00000029046|mus_mus|mus_mus_mus_hu_True|18_28 (ssRNA)
RNA: GGGAGUUCUACAGUCCGACGAUCGUUUUUACCAUCACAAGUGAUGAUACAAUCUGGCUUGGCCAUUGCGCCCAUUUUUCGCAAAGCUAUUCCCACUCCUAGCUCCUUCAUGUACUCCUCAAAGCCGUUGCUGUCCACCAGGCGCAACAGAGGAUUGAGCAUCA
B18: chr5:65987834:65987835:+_ENSMUSG00000029203_ENSMUST00000142407|mus_hu|FALSE|FALSE (ssRNA)
RNA: GGGAGUUCUACAGUCCGACGAUCCAUCCACAUUUUCACACAAUCCCACCUUACUUCAAAAUAUAAAGUACGAGGUUUCAGGUAUUUAAAAUAAAUAAAGAAAAAUCUUGUUUCCUUUGGCAUCUUUAGAAAAUAAACUACAGCCAACAGAGGAUUGAGCAUCA
B19: chr1:130485734:130485735:-_ENSMUSG00000045382_ENSMUST00000052172|mus_mus|mus_mus_mus_hu_False|38_78 (ssRNA)
RNA: GGGAGUUCUACAGUCCGACGAUCGAUGAAGGAGUCGAUGCUGAUCCCAAUGUAGUAUGGCAGCCAGCAGGCGAAGAAAGCCAGGAUGAGGAUGACUGUCGUCUUGAGGGCCUUGCGCUUCUGGUGGCCCUUGGAGUGUGACAGCAACAGAGGAUUGAGCAUCA
B20: chr12:42180722:42180723:-_ENSMUSG00000036295_ENSMUST00000043884|mus_hu|mus_mus_mus_hu_True|18_58 (ssRNA)
RNA: GGGAGUUCUACAGUCCGACGAUCCUGUAGGAGAAGAAUCUGUGUGUUAGCUGGCAAUCUGGCUGGGAAAGUUAAAAGCCCUAAAUCAUUACAAUCCACUGUAGAUGCUUCCAUAUAGAUGGAUCUCGGUGUAAACCAAGGCCUCAACAGAGGAUUGAGCAUCA
B21: chr15:79941026:79941027:+_ENSMUSG00000022415_ENSMUST00000009727|mus_mus|FALSE|FALSE (ssRNA)
RNA: GGGAGUUCUACAGUCCGACGAUCCUUCUUGCGGUCCUUGACACUGCUGAUCUGCGGGAAGUACACAUCGAGCGCCAGGUAGAGCAGGCAGGUGAGGAAGGCCAACACACCCACAGUCACACCGUAGCUGCAGGCAUUGGGGUUCAACAGAGGAUUGAGCAUCA
B22: chr10:33190432:33190433:-_ENSG00000150093_ENST00000302278|hu_mus|hu_hu_hu_mus_True|8_108 (ssRNA)
RNA: GGGAGUUCUACAGUCCGACGAUCUACAUUUUCAAAACCUGCAUGUGAAUAAAACCCUGGCCACAGAGCCCCAAAACUACCCUACUGUGACUAAGAUGCUGCUGCUGUGAGCUUGGUGUUGCAAAAUUUUGCACGGGAGGAUUCCAACAGAGGAUUGAGCAUCA

This is one part of the list.

The assay addresses T1, UNK ZnF1-3. Kind of assay: nsRBNS (natural sequence RNA bind-n-seq); RBNS binding buffer (assumed for nsRBNS): 25 mM Tris pH 7.5, 150 mM KCl, 3 mM MgCl2, 0.01% Triton X-100, 500 ug/ml BSA, 20 U/ml SUPERase-In, 4 C; UNK is unkempt and MSI1 is Musashi-1; names of the RNAs are library labels; protein concentration not given here; high values mean tight binding.
On to B1, for which the binding signal was 0.646 enrichment R. Consider B2, for which the binding signal was 1.18 enrichment R. Take B3: the binding signal was 0.834 enrichment R. B4 displayed a binding signal of 0.512 enrichment R.

B5 returned a binding signal of 1.31 enrichment R.

B6 came in with a binding signal of 0.889 enrichment R. With B7 the figure was 1.11 enrichment R; with B8, 0.89 enrichment R.

As for B9, the binding signal was determined as 1.09 enrichment R.

Turning to B10, the binding signal is 1.78 enrichment R. As to B11, the binding signal was determined as 1.14 enrichment R. Molecule B12 had a binding signal of 0.364 enrichment R. With B13, the binding signal was 0.621 enrichment R. With B14 the figure was 1.88 enrichment R. With B15 the figure was 1.82 enrichment R; with B16, 0.914 enrichment R. Consider B17, for which the binding signal is 0.68 enrichment R. With B18, the binding signal came to 1.66 enrichment R. With B19 the figure was 0.909 enrichment R; with B20, 1.04 enrichment R. With B21 the figure was 1.22 enrichment R; with B22, 1.57 enrichment R.
